Hit rate of the full screen: of about 39,000 compounds, about 220 (0.56%) showed activity. The list shows a part of the results.
System: Escherichia coli K-12 BW25113
Assay: relative growth (OD600 normalised to plate interquartile mean) (fraction); higher = less growth inhibition, active = 0.2 or less
Details: 50 µM; LB; incubation time: overnight (16-24 h)
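Further: static incubation at 37 °C against the wild-type strain, values averaged over two biological replicates.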

| Structure (SMILES) | relative growth |
| --- | --- |
| COc1ccc(S(=O)(=O)Nc2ccc3c(c2)C(=O)N([C@H](C)CO)C[C@H](C)[C@@H](CN(C)S(=O)(=O)c2ccc(Cl)cc2)OCCCC[C@H](C)O3)cc1 | inactive: 1.03 |
| C[C@@H]1CN([C@@H](C)CO)C(=O)c2cc(NC(=O)CCC(F)(F)F)ccc2O[C@@H](C)CCCCO[C@H]1CN(C)CC1CCCCC1 | inactive: 0.98 |
| CCc1nc2ccc(C(=O)NCCc3ccccn3)cn2c1N(CC)Cc1cccc(Br)c1 | inactive: 1.02 |
| O=C(O)CCCN=C1NC(=O)CC(=O)N1 | inactive: 1.02 |
| Cc1ccc(S(=O)(=O)N(C)C[C@H]2Oc3ccc(NS(=O)(=O)c4ccccc4)cc3C(=O)N([C@H](C)CO)C[C@@H]2C)cc1 | inactive: 0.987 |
| NC(=O)c1cnc2n(c1=O)CCS2 | inactive: 1 |
| COc1ccc(S(=O)(=O)Nc2ccc3c(c2)C(=O)N([C@H](C)CO)C[C@@H](C)[C@H](CN(C)S(=O)(=O)c2ccc(OC)cc2)O3)cc1 | inactive: 1 |
| CCOC(=O)C1=C(N)Oc2ccc(Br)cc2[C@H]1[C@H](C#N)C(=O)OCC | inactive: 0.97 |
| Cc1noc(C)c1S(=O)(=O)Nc1ccc2c(c1)CC(=O)N([C@H](C)CO)C[C@@H](C)[C@@H](CN(C)Cc1ccc3c(c1)OCO3)O2 | inactive: 0.987 |
| CC(C)(C)OC(=O)C[C@@H]1CC=CC[C@@H](CC(=O)N[C@H](CO)Cc2ccccc2)C(=O)N[C@@H](C(C)(C)C)COC1=O | inactive: 1.01 |
| C[C@@H]1CN([C@@H](C)CO)C(=O)Cc2cc(NC(=O)Nc3ccccc3)ccc2O[C@@H]1CN(C)C(=O)Nc1cccc2ccccc12 | inactive: 1.01 |
| COc1ccc(NC(=O)Nc2ccc3c(c2)CC(=O)N([C@H](C)CO)C[C@@H](C)[C@@H](CN(C)Cc2ccc(Cl)c(Cl)c2)O3)cc1 | inactive: 1.02 |
| C[C@@H]1CCCCO[C@@H](CN(C)CC2CCCCC2)[C@@H](C)CN([C@@H](C)CO)C(=O)c2cc(NC(=O)CCCN(C)C)ccc2O1 | inactive: 0.984 |
| CO[C@@H]1CN(C)C(=O)c2cc(NC(=O)Nc3cccc(F)c3)ccc2OC[C@@H](C)N(C(=O)Nc2c(C)noc2C)C[C@@H]1C | inactive: 0.989 |
| Cc1cccc(CN(C)C[C@@H]2Oc3ncc(-c4cc5ccccc5o4)cc3C(=O)N([C@H](C)CO)C[C@@H]2C)c1 | inactive: 0.98 |
| C[C@H](CO)N1C[C@H](C)[C@H](CN(C)C(=O)Nc2cccc3ccccc23)OCCCC[C@H](C)Oc2ccc(NC(=O)Cc3ccccc3)cc2C1=O | inactive: 0.997 |
| CN(C)CCCCCCNC(=O)[C@H]1C[C@H]2C(=O)N[C@@H](CCCC[N+](C)(C)C)C(=O)N2[C@H]1c1cccc(OCCO)c1 | inactive: 0.989 |
| C[C@@H]1CN([C@@H](C)CO)C(=O)c2cc(NC(=O)C3CC3)ccc2O[C@@H]1CN(C)Cc1ccc2c(c1)OCO2 | inactive: 0.98 |
| Cc1cccc(S(=O)(=O)N2C[C@@H](O)COC[C@H]3O[C@H](CC(=O)NCc4ccncn4)CC[C@@H]32)c1 | inactive: 0.97 |
| C[C@@H]1CN([C@@H](C)CO)C(=O)c2cccc(NC(=O)c3cnccn3)c2O[C@H]1CN(C)C(=O)Nc1ccc2c(c1)OCO2 | inactive: 0.996 |
| Cc1noc(C)c1NC(=O)Nc1ccc2c(c1)C(=O)N([C@H](C)CO)C[C@@H](C)[C@H](CN(C)C(=O)C1CCCCC1)OCCCC[C@@H](C)O2 | inactive: 0.985 |

| Structure (SMILES) | relative growth |
| --- | --- |
| C[C@H](CO)N1C[C@H](C)[C@@H](CN(C)S(C)(=O)=O)Oc2ccc(NC(=O)Cc3cn(C)c4ccccc34)cc2CC1=O | inactive: 1 |
| C[C@H]1CN([C@@H](C)CO)C(=O)Cc2cc(NS(=O)(=O)c3ccccc3)ccc2O[C@@H]1CN(C)S(=O)(=O)c1ccc(F)cc1 | inactive: 0.984 |
| C[C@@H]1CN([C@@H](C)CO)C(=O)c2cc(NS(=O)(=O)c3ccc(Cl)cc3)ccc2O[C@@H](C)CCCCO[C@@H]1CN(C)C(=O)c1ccccc1 | inactive: 1 |
| C[C@H](CO)N1C[C@H](C)[C@@H](CN(C)S(=O)(=O)c2ccc3c(c2)OCCCO3)OCc2cnnn2CCCC1=O | inactive: 1 |
| C[C@H](CO)N1C[C@H](C)[C@H](CN(C)C(=O)NC2CCCCC2)Oc2ccc(NS(=O)(=O)c3cn(C)cn3)cc2CC1=O | inactive: 0.995 |
| C[C@H](CO)N1C[C@H](C)[C@@H](CN(C)Cc2ccc(C(F)(F)F)cc2)Oc2c(NC(=O)NC3CCCCC3)cccc2C1=O | inactive: 0.912 |
| CCc1cnc2c(c1OC)c(=O)n(CCN1CCOCC1)c(=O)n2C | inactive: 0.976 |
| OCc1ccccc1-n1cncn1 | inactive: 0.998 |
| N[C@@H]1[C@@H](O)[C@H](O)[C@@H](CO)O[C@H]1O | inactive: 1.12 |
| Cc1ccc(C(=O)Nc2ccc(Nc3ccccc3)cc2)c(C)c1 | inactive: 0.997 |
| CC(C)NC(=O)N(C)C[C@H]1Oc2cc(-c3ccccc3F)ccc2S(=O)(=O)N([C@H](C)CO)C[C@H]1C | inactive: 1.01 |
| COCCNC(=O)C[C@@H]1CC[C@@H]2[C@@H](COc3ccc(NC(=O)Nc4cccc(F)c4)cc3C(=O)N2C)O1 | inactive: 1.01 |
| Cn1cnc(S(=O)(=O)N[C@H]2C=C[C@H](CC(=O)N3CCN(c4ccccc4)CC3)O[C@H]2CO)c1 | inactive: 1.01 |
| COCC(=O)N(C)C[C@@H]1Oc2cc(C#CCN(C)C)ccc2S(=O)(=O)N([C@@H](C)CO)C[C@H]1C | inactive: 1.01 |
| C[C@@H]1CN([C@H](C)CO)C(=O)Cc2cc(NS(=O)(=O)c3cn(C)cn3)ccc2O[C@H]1CN(C)CC1CC1 | inactive: 0.979 |
| C[C@H]1CN([C@@H](C)CO)S(=O)(=O)c2ccc(C#Cc3ccncc3)cc2O[C@@H]1CN(C)C(=O)C1CCOCC1 | inactive: 1.01 |
| C[C@@H]1CN([C@@H](C)CO)C(=O)c2cc(NC(=O)Nc3cccc4ccccc34)ccc2O[C@@H](C)CCCCO[C@@H]1CN(C)C | inactive: 1.01 |
| O=C(O)c1ccccc1O | inactive: 0.999 |
| COc1ccc(S(=O)(=O)N(C)C[C@H]2Oc3c(NS(=O)(=O)c4cn(C)cn4)cccc3C(=O)N([C@@H](C)CO)C[C@H]2C)cc1 | inactive: 1 |
| C[C@@H]1CN([C@@H](C)CO)C(=O)c2cc(NC(=O)Cc3ccccc3)ccc2O[C@H]1CN(C)Cc1ccc(C(F)(F)F)cc1 | inactive: 0.997 |
| C[C@H]1CN([C@@H](C)CO)S(=O)(=O)c2ccc(C#CCN(C)C)cc2O[C@@H]1CN(C)C | inactive: 0.979 |

| Structure (SMILES) | relative growth |
| --- | --- |
| O=c1oc2cc(O)ccc2s1 | inactive: 0.938 |
| C[C@H](CO)N1C[C@H](C)[C@@H](CN(C)C(=O)Nc2ccc(C(F)(F)F)cc2)Oc2c(NC(=O)c3nc4ccccc4s3)cccc2C1=O | inactive: 0.988 |
| C[C@H]1CN([C@@H](C)CO)C(=O)Cc2cc(NC(=O)CCN3CCOCC3)ccc2O[C@H]1CN(C)Cc1ccccc1 | inactive: 1.02 |
| C[C@@H]1CCCCO[C@H](CN(C)C(=O)Nc2ccc(F)cc2)[C@H](C)CN([C@@H](C)CO)C(=O)c2cc(NC(=O)c3ccncc3)ccc2O1 | inactive: 0.987 |
| Cc1noc(C)c1NC(=O)Nc1ccc2c(c1)CC(=O)N([C@H](C)CO)C[C@H](C)[C@@H](CN(C)S(=O)(=O)c1c(C)noc1C)O2 | inactive: 0.998 |
| CN1C(=O)c2cc(NC(=O)c3cccs3)ccc2OC[C@@H]2O[C@@H](CC(=O)NCCN3CCCCC3)CC[C@@H]21 | inactive: 1.01 |
| C[C@@H]1CN([C@H](C)CO)S(=O)(=O)c2ccc(C#Cc3ccc(F)cc3)cc2O[C@@H]1CN(C)C(=O)CN(C)C | inactive: 0.954 |
| COc1ccc(NC(=O)N(C)C[C@@H]2OCCCC[C@@H](C)Oc3ccc(NC(=O)NC(C)C)cc3C(=O)N([C@@H](C)CO)C[C@H]2C)cc1 | inactive: 1.01 |
| CCOC(=O)c1cnn2c(N)c(C#N)cnc12 | inactive: 1 |
| C[C@H](CO)N1C[C@H](C)[C@@H](CN(C)C(=O)Nc2ccc(C(F)(F)F)cc2)Oc2ccc(NC(=O)CCCCCC(=O)Nc3ccccc3N)cc2C1=O | inactive: 1.01 |
| NC(=O)[C@H]1[C@@H]2C(=O)O[C@@H](c3ccccc3)[C@@H](c3ccccc3)N2[C@@H](c2ccc(OCCO)cc2)[C@]12C(=O)Nc1ccc(C#CC3(O)CCCCCC3)cc12 | inactive: 1.07 |
| Cc1ccc(S(=O)(=O)Nc2ccc3c(c2)CC(=O)N([C@H](C)CO)C[C@@H](C)[C@@H](CN(C)C(=O)NC(C)C)O3)cc1 | inactive: 1.01 |
| C[C@@H]1CCCCO[C@H](CN(C)S(=O)(=O)c2cccs2)[C@@H](C)CN([C@@H](C)CO)C(=O)c2cc(NC(=O)C3CCCCC3)ccc2O1 | inactive: 0.995 |
| NCC[C@H]1CC[C@H](NC(=O)NC2CCCCC2)[C@H](CO)O1 | inactive: 0.986 |
| COc1ccc(-c2oc3cc(O[C@H]4O[C@H](CO)[C@@H](O)[C@H](O)[C@H]4O)c(OC)c(O)c3c(=O)c2OC)cc1O | inactive: 1.01 |
| C[C@@H]1CN([C@H](C)CO)C(=O)c2cc(NC(=O)CCN3CCOCC3)ccc2O[C@H]1CN(C)S(C)(=O)=O | inactive: 0.993 |
| CCNC(=O)C[C@@H]1CC[C@H](NC(=O)C2CCOCC2)[C@H](CO)O1 | inactive: 1.01 |
| C[C@@H]1CCCCO[C@H](CN(C)CC2CC2)[C@H](C)CN([C@@H](C)CO)C(=O)c2cc(NS(C)(=O)=O)ccc2O1 | inactive: 1 |
| C[C@H]1CN([C@@H](C)CO)C(=O)Cc2cc(NS(=O)(=O)c3cn(C)cn3)ccc2O[C@@H]1CN(C)C(=O)Nc1ccc(F)cc1 | inactive: 0.982 |
| COc1ccc2nc(Cl)sc2c1 | inactive: 0.975 |

— the supplement of paper PMC9446081
